Experimental data as given in PubChem BioAssay AID1347165 (National Center for Advancing Translational Sciences (NCATS), 2019).
Out of some 220,000 compounds screened, about 5,700 (2.6%) were called active. This list was built around the results that the source calls inconclusive (neither active nor inactive); the mix of calls is not that of the screen. Calls come from the whole dose curve; as a rule, active = well fitted inhibition curve with a large enough effect; inconclusive = small, poorly fitted or top-dose-only effect; inactive = no such curve, though single readings can be large or run the other way. A potency beside an inconclusive call is a rough fit, not a confirmed value.

molecular target: Lysine-specific demethylase 5B (Homo sapiens) (UniProt Q9UGL1); test: Primary screen for KDM5B Histone Demethylases FDH-coupled qHTS; settings: FDH-coupled NADH fluorescence (FDH is formaldehyde dehydrogenase); activity change, negative = inhibition: at 57.7 µM (top of the series) unless noted; note: nearly all actives have a fitted effect of over 70% in size; for activity change, negative = inhibition: 0% is about no effect
In short: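 Inhibition is measured as reduced NADH fluorescence generation from FDH coupling to formaldehyde release. Truncated KDM5BΔAP at 200 nM final acts on H3K4me3 peptide (12.5 µM in substrate mix) in pH 7.5 HEPES buffer with Tween-20, 30 min, room temperature.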
Potency is the fitted concentration of half-maximal effect; tags give direction and shape of the fitted curve.

UniProt Q9UGL1, sequence (Q9UGL1 whole entry, looked up, the tested form may be a part): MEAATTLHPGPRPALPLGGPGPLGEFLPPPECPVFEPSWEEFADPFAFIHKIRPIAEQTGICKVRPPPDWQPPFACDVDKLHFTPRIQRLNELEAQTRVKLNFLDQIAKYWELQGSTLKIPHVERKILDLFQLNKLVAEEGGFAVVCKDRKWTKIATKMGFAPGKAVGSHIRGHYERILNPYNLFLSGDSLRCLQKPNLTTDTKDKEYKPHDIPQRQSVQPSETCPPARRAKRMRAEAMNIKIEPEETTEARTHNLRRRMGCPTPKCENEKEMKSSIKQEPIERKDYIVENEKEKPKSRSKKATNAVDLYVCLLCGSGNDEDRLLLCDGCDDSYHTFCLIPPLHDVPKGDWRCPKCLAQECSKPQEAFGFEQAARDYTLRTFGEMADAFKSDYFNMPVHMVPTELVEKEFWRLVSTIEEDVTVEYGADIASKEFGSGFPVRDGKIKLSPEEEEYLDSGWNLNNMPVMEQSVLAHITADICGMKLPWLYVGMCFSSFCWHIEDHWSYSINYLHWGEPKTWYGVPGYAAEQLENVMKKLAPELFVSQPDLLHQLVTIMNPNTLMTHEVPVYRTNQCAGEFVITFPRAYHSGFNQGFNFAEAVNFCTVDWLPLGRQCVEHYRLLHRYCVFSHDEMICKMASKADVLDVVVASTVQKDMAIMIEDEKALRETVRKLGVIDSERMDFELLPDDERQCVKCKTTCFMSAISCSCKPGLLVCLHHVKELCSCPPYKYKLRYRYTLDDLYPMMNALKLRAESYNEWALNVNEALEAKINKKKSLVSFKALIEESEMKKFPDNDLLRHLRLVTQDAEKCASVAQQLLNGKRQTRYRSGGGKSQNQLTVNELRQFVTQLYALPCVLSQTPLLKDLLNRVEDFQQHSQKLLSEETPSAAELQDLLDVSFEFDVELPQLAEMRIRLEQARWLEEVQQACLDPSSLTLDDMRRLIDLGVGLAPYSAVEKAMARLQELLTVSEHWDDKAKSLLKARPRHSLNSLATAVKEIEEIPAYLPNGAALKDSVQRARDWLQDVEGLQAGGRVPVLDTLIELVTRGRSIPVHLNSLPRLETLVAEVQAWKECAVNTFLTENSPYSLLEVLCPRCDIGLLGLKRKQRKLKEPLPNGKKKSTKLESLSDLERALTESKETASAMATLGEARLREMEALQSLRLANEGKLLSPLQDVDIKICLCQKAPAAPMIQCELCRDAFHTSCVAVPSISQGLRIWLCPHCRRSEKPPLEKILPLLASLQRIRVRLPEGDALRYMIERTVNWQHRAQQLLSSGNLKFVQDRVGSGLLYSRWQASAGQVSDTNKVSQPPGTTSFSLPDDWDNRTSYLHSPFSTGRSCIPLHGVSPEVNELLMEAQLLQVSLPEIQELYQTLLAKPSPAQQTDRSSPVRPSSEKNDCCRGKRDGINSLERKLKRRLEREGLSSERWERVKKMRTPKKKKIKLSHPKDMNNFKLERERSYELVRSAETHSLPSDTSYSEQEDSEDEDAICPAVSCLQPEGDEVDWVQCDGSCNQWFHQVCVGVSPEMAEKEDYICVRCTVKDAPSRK

| Structure (SMILES) | Potency | activity change, negative = inhibition |
| --- | --- | --- |
| CCc1ccc(S(=O)(=O)Nc2ccc3nc(N4CCN(CCC#N)CC4)cc(C(=O)O)c3c2)cc1 | inconclusive: 39.8 µM [inhibitor, partial curve, poor fit] |  |
| COCCN1C(=O)Cc2ccccc2C1C(=O)NCc1cc(F)ccc1F (configuration not stated) | inconclusive: 7.08 µM [inhibitor, partial curve] |  |
| CCOc1ccc(CC(=O)NC2CCN(c3cc(-c4ccccc4)[nH]n3)C2)cc1OCC (configuration not stated) | inconclusive: 14.1 µM [inhibitor, partial curve, poor fit] |  |
| O=S(=O)(c1cccs1)N1CCCC(c2nc(-c3ccccc3)no2)C1 (configuration not stated) |  | inactive: -6.54% |
| O=C(c1c[nH]c2ccccc12)C(F)(F)F | inconclusive: 35.5 µM [inhibitor, partial curve, poor fit] |  |
| CCNC(=O)N1CCC(Cc2ccc(C(=O)NCCN3CCCCC3)cc2)CC1 |  | inactive: -13.3% |
| CCN(Cc1ccccc1)S(=O)(=O)c1ccc(C(=O)Nc2nnc(C)o2)cc1 | inconclusive: 15.8 µM [inhibitor, partial curve, poor fit] |  |
| NC(=O)Cc1ccc(C(=O)CSc2ccc3c(c2)OCCCO3)s1 | inconclusive: 39.8 µM [inhibitor, single point] |  |
| COc1ccc(-c2noc([C@@H]3CCCN3C(=O)c3cc(F)cc(F)c3)n2)cc1OC | inconclusive: 39.8 µM [inhibitor, partial curve, poor fit] |  |
| CCN1c2cc(C(=O)NCc3ccc4c(c3)OCO4)ccc2C(=O)N2CCCCCC21 (configuration not stated) | inconclusive: 31.6 µM [inhibitor, partial curve, poor fit] |  |
| CNc1ncc(C(=O)N[C@@H]2COCC[C@@H]2OCc2c(C)noc2C)cn1 | active: 28.2 µM |  |
| CCc1cccc(C)c1NC(=O)c1cnn(-c2ccc(F)cc2)c1-n1cccc1 | inconclusive: 31.6 µM [inhibitor, single point] |  |
| Cc1cc(C)c(NC(=O)c2ccc3ccccc3n2)c(C)c1 | inconclusive: 28.2 µM [inhibitor, single point] |  |
| CSc1nn(Cc2cccc(F)c2)c(N(C(C)=O)C(C)=O)c1S(=O)(=O)c1ccccc1 | inconclusive: 31.6 µM [inhibitor, single point] |  |
| CC(=O)c1ccc(NC(=O)C(C)OC(=O)C2=CN3CCS(=O)(=O)N=C3C=C2)cc1 (configuration not stated) |  | inactive: 143% |
| COc1ncc(-c2nc(-c3c(C)noc3C)cc3c2cc(C)n3CCN(C)C)cn1 | inconclusive: 31.6 µM [inhibitor, partial curve] |  |
| O=C(Nc1ccc(Cl)cc1C(F)(F)F)c1cc(I)ccc1Cl |  | inactive: 22.3% |
| COc1ccc(Nc2nnc(-c3ccc(C)c(S(N)(=O)=O)c3)c3ccccc23)cc1 | inconclusive: 7.94 µM [inhibitor, partial curve, poor fit] |  |
| CC(=O)c1cccc(NC(=O)C2=CC(c3ccco3)=NS(=O)(=O)N2C)c1 |  | inactive: -11.8% |
| CCN(CC)S(=O)(=O)c1ccc(NS(=O)(=O)c2ccccc2C#N)cc1 |  | inactive: -5.82% |
| CCc1ccc(CN2CCc3nc(Nc4ccc5c(c4)OCCO5)ncc3C2)cc1 | inconclusive: 31.6 µM [inhibitor, partial curve, poor fit] |  |

| Structure (SMILES) | Potency | activity change, negative = inhibition |
| --- | --- | --- |
| O=S(=O)(NC(c1ccccc1)C1CC1)c1cccs1 (configuration not stated) |  | inactive: -6.11% |
| Cc1ccc2ncc3c(-c4ccccc4)nn(CC(=O)NC4CCCCC4)c3c2c1 |  | inconclusive: -34.6% [inhibitor] |
| COc1ccccc1N1CCN(CCCNC(=O)Cn2ncc3c([nH]c4ccccc43)c2=O)CC1 | inconclusive: 44.7 µM [inhibitor, single point] |  |
| CCc1ccc2oc(C(=O)Nc3ccccc3Cl)cc(=O)c2c1 |  | inactive: -7.99% |
| Cc1ccc(C2CC(=O)CC(c3ccc(C)cc3C)S2)c(C)c1 (configuration not stated) |  | inactive: 29.9% |
| CCNC(=O)N[C@@H]1C=C[C@@H](c2c(C)nn(CCC#N)c2C)C1 | inconclusive: 56.2 µM [inhibitor, single point] |  |
| O=C(Cn1ccn2nc3c(c2c1=O)CCCCC3)NCc1ccc(F)cc1 | inconclusive: 22.4 µM [inhibitor, single point] |  |
| CCOc1cccc(CN(C)Cc2cn[nH]c2-c2ccc(F)cc2)c1O | inconclusive: 6.31 µM [inhibitor, single point] |  |
| CCOC(=O)c1nc(N(C)c2cccc(C)c2)c2ccccc2n1 |  | inactive: 12% |
| Cn1ncc(N2CCOC(CCNC3CCC4(CCNCC4)CC3)C2)cc1=O (configuration not stated) | inconclusive: 10 µM [inhibitor, partial curve] |  |
| COC(=O)c1c(NC(=O)c2ccccc2OC)sc(C(=O)N2CCOCC2)c1C | inconclusive: 35.5 µM [inhibitor, partial curve, poor fit] |  |
| COc1ccc(C(=O)Oc2ccccc2Cl)c(OC)c1 |  | inactive: 22.9% |
| O=C(c1nccc2ccccc12)N1CCc2nc3cc[nH]n3c(=O)c2C1 | inconclusive: 25.1 µM [inhibitor, single point] |  |
| CC(NCc1ccccc1Cl)C(=O)Nc1ccc(C(C)(C)C)cc1 (configuration not stated) | inconclusive: 39.8 µM [inhibitor, single point] |  |
| CC(C)C[C@@H](NC(=O)C1=C[C@@H](NC(=O)c2cccnc2)[C@@H](O)[C@H](O)C1)C(N)=O |  | inactive: -24.8% [at 86.2 µM] |
| CCOc1c(Cl)cc(CNCc2ccccn2)cc1OC | inconclusive: 39.8 µM [inhibitor, single point] |  |
| O=C(Nc1ccc(C2(C(=O)N3CCN(c4ccccn4)CC3)CCCCC2)cc1)C1CC1 | active: 28.2 µM |  |
| CCOc1ccc(-c2nc(C#N)c(NC3CC3)o2)cc1 | inconclusive: 25.1 µM [inhibitor, partial curve, poor fit] |  |
| COc1ccc(CN[C@H]2C[C@@H](Cc3cc(CN4CCOCC4)on3)C2(C)C)cc1 | inconclusive: 35.5 µM [inhibitor, partial curve, poor fit] |  |
| CC(C)c1ccc(CN(Cc2ccco2)c2cnc(S(C)(=O)=O)nc2C(=O)Nc2ccccc2)cc1 | inconclusive: 25.1 µM [inhibitor, partial curve, poor fit] |  |
| Cc1ccccc1Cn1nc(-c2ccc(C)c(S(=O)(=O)N3CCCCC3)c2)ccc1=O | inconclusive: 31.6 µM [inhibitor, single point] |  |
